# Assay results taken from PubChem BioAssay AID588342 (National Center for Advancing Translational Sciences (NCATS), 2011).
# Where “and” joins values, the source holds several entries; their conditions need not be identical. Equal entries are not always repeated. Among all 360,000 compounds or so, about 25,000 (6.9%) were called active. This list was built around the results that the source calls inconclusive (neither active nor inactive); the mix of calls is not that of the screen. Calls follow the shape of the dose curve; as a rule, active = well fitted inhibition curve with a large enough effect; inconclusive = small, poorly fitted or top-dose-only effect; inactive = flat fitted curve, though single readings scatter. Potencies beside an inconclusive call are fits to weak or partial responses and may not hold up.
# Target: Luciferin 4-monooxygenase (Photinus pyralis) (UniProt P08659)
# Assay: qHTS profiling assay for firefly luciferase inhibitor/activator using purifed enzyme and Km concentrations of substrates (counterscreen for miR-21 project); also: nearly all actives have a fitted effect of over 55% in size;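 as to activity change, negative = inhibition: plate controls were vehicle for no effect and reference inhibitor for full effect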
# Details: purified FLuc, luminescence inhibition; series mostly up to 57.5 µM; activity change, negative = inhibition: at the top concentration
# Method in brief: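 Purified P. pyralis luciferase (10nM final) with 10uM D-luciferin and 10uM ATP (Km levels) in 50mM Tris acetate pH 7.5, 10mM Mg acetate, 0.01% Tween-20, 0.05% BSA; qHTS 6-point titration, ~60 µM downward; luminescence read.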
# Potency is read from the fitted curve at half-maximal effect; tags tell the direction and shape of the fitted curve.
# Sequence of UniProt P08659 (P08659 whole entry, looked up): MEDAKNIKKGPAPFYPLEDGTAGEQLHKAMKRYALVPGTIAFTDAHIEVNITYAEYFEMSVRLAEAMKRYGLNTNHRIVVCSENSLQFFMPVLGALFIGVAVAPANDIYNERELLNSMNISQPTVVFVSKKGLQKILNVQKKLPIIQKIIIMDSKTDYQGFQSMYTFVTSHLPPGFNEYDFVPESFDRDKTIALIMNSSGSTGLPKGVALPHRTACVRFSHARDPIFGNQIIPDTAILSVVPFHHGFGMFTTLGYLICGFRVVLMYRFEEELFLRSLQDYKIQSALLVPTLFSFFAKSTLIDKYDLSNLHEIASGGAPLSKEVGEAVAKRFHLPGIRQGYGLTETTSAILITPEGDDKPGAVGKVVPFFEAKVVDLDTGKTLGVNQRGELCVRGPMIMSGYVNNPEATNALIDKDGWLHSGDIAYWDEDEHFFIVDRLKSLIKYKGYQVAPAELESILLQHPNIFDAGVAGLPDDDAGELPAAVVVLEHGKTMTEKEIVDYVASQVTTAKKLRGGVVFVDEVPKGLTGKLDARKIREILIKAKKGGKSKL
Compound,"activity change, negative = inhibition",Potency
CCc1ccc(Oc2coc3cc(OC(=O)c4cc5ccccc5oc4=O)ccc3c2=O)cc1,inactive: -4.51%,
CCCCn1cnc2c(oc3ccccc32)c1=O,,"inconclusive: 37.9 µM [inhibitor, single point]"
CCN(CC(=O)NCc1cccs1)C(=O)CCCOc1ccc(C(C)(C)C)cc1,,"inconclusive: 21.3 µM [inhibitor, single point]"
O=C(Nc1cccc(O)c1)c1ccc([N+](=O)[O-])cc1Cl,,"inconclusive: 19 µM [inhibitor, partial curve, poor fit]"
CCN(C(=O)CSc1nc2ccccc2nc1Cc1ccccc1OC)c1ccccc1,inactive: -15%,
CCC(C)Sc1cccc(-c2nc3ccc(C)cn3c2NCc2ccccc2)c1 (stereo not given),,"inconclusive: 26.9 µM [inhibitor, partial curve]"
COc1ccc(-n2c(=S)[nH]c3ccccc3c2=S)cc1,inactive: -0.201%,
Cc1ccc2c(c1)/C(=N/OC(=O)c1ccc(F)cc1)CCS2,,active: 6.01 µM
CCSc1n[nH]c(=S)s1,,"inconclusive: 26.9 µM [inhibitor, partial curve, poor fit]"
COc1cc2c(cc1OC)CN(C(=O)COc1ccccc1C#N)CC2,,"inconclusive: 37.9 µM [inhibitor, single point]"
CC(C)c1ccc(NC(=O)CN2C(=O)C3(SCC(=O)N3c3ccc(F)cc3)c3ccccc32)cc1 (stereo not given),inactive: -5.11%,
COc1ccc(/C=C2\SC(=S)N(CCC(=O)NC3=NCCS3)C2=O)cc1OC,,"inconclusive: 19 µM [inhibitor, partial curve]"
CC(=O)NCc1ccc(S(=O)(=O)N2CCCN(C)CC2)cc1,inactive: 1.11%,
Nc1cc(-c2ccccc2)nn1Cc1ccccc1,inactive: -6.56%,
COc1ccc(-c2cc(C(=O)Oc3ccc(Br)cc3)c3ccccc3n2)cc1,,"inconclusive: 13.5 µM [inhibitor, partial curve, poor fit]"
COc1ccc(-c2cc3nc4c(c(=O)n3[nH]2)CCC4)cc1,,active: 4.26 µM
CCc1ccc(N=Nc2ccc(O)c3[nH]cnc23)cc1,,"inconclusive: 26.9 µM [inhibitor, single point]"
CC(C)Sc1nc(N)c2c3c(sc2n1)CN(C)CC3,,active: 23.9 µM
Cc1ccc(CNC(=O)/C=C/c2ccc(Br)o2)cc1,,"inconclusive: 26.9 µM [inhibitor, single point]"
Cc1cccc(Nc2nnc(SCC(=O)c3ccc(O)cc3O)s2)c1,,active: 9.53 µM
CN(Cc1ccccn1)Cc1nc(-c2ccc(Cl)cc2)no1,,"inconclusive: 21.3 µM [inhibitor, partial curve, poor fit]"
COc1ccc(/C=C/C(=O)NCCOc2ccccc2OC)cc1,,"inconclusive: 37.9 µM [inhibitor, single point]"
OCc1ccc(OCCCOc2cccc3cccnc23)cc1,,"inconclusive: 26.9 µM [inhibitor, single point]"
O=C(NCCc1cn2ccccc2n1)c1cc(COc2c(F)cccc2F)on1,,"inconclusive: 33.8 µM [inhibitor, partial curve, poor fit]"
Cc1ccc(/C(O)=C2\C(=O)C(=O)N(C)C2c2cccc([N+](=O)[O-])c2)cc1 (stereo not given),inactive: 1.48%,

Compound,"activity change, negative = inhibition",Potency
Cc1ccc(NC(=O)CCNC(=O)c2ccccc2Cl)nc1,inactive: -1.28%,
CCOC(=O)COc1ccc(C2CC(C)=NN2c2ccccc2)cc1 (stereo not given),inactive: 2.93%,
COc1ccc(Cc2nc3ccc(C(=O)N4CCCC4)cc3o2)cc1,,active: 13.5 µM
Cc1cc(C)n(C(=O)CNC(=O)c2cccs2)n1,inactive: -1.27%,
Brc1ccccc1-c1nnc(CSc2nnc3sc4ccccc4n23)o1,,"inconclusive: 30.1 µM [inhibitor, partial curve, poor fit]"
C=CCn1c(COc2ccc(OC)cc2)nc2ccccc21,,active: 16.9 µM
COc1ccc(C(=O)NCC(=O)c2ccccc2)cc1,,active: 12 µM
O=C(COc1ccccc1)NNc1nc2ccccc2s1,,"inconclusive: 21.3 µM [inhibitor, single point]"
Cc1cccc(Nc2c([N+](=O)[O-])c(=O)n(C)c3ccccc23)c1,,active: 21.3 µM
C=CCc1c(C)nc(SC)nc1Nc1ccc(C(C)=O)cc1,,"inconclusive: 26.9 µM [inhibitor, single point]"
Cc1cc(C(=O)COc2cccnc2[N+](=O)[O-])c(C)n1Cc1cccs1,,active: 23.9 µM
CCOC(=O)Cn1c(=O)oc2cc(S(=O)(=O)N3CCc4ccccc43)ccc21,inactive: 2.86%,
O=C(c1cc2ccccc2oc1=O)N(Cc1cccs1)C1CCS(=O)(=O)C1 (stereo not given),,active: 19 µM
CN1CCN(C(=O)c2cc(COc3c(F)cccc3F)on2)CC1c1ccccc1 (stereo not given),,"inconclusive: 19 µM [inhibitor, partial curve, poor fit]"
O=C(COc1ccc(Br)cc1)c1ccc2c(c1)CCCC2,,"inconclusive: 21.3 µM [inhibitor, partial curve]"
C=CCn1c(C)nc2ccccc2c1=O,inactive: -0.0579%,
COc1ccc(-c2nc3scc(CCNS(=O)(=O)c4cccs4)n3n2)cc1,,"inconclusive: 21.3 µM [inhibitor, partial curve]"
COC(=O)c1ccc(-c2c(-c3ccccc3)ncc3cc(F)ccc23)cc1,,"inconclusive: 9.53 µM [inhibitor, single point]"
Cc1cc(SCC(=O)N/N=C/c2ccc(C(=O)O)cc2)nc2ccccc12,,"inconclusive: 26.9 µM [inhibitor, single point]"
COc1ccc(Br)cc1CNCc1c(C(=O)O)c(C)n(Cc2ccccc2C)c1C,,"inconclusive: 10.7 µM [inhibitor, partial curve, poor fit]"
C/C(=N\NC(=O)c1cc(-c2cccnc2)nc2ccccc12)c1ccc(O)cc1O,,"inconclusive: 12 µM [inhibitor, single point]"
COc1ccc(-n2nc(C(=O)O)c3ccccc3c2=O)cc1,inactive: -4.11%,
COc1ccc(C(=O)COC(=O)c2ccc3ccccc3n2)cc1,,active: 21.3 µM
CC[C@@H](C)[C@H](NC(=O)Cc1c(C)c2c(cc(C)c3c(C)coc32)oc1=O)C(=O)O,,"inconclusive: 16.9 µM [inhibitor, partial curve]"
Cc1cc(C)cc(OCC(=O)N2CCCCCC2)c1,inactive: 0.479%,

Compound,"activity change, negative = inhibition",Potency
CCOc1ccc(NC(=O)CN(C)C(=O)c2cc(S(=O)(=O)N3CCCCC3)ccc2Cl)cc1OCC,inactive: 2.2%,
COc1cc(/C=N\Nc2nc3ccccc3o2)cc(OC)c1OC,,"inconclusive: 4.78 µM [inhibitor, full curve]"
CCOc1ccc(NC(=O)CN(C)C(=O)c2cc(-c3ccc(OC)cc3)nc3ccccc23)cc1OCC,,active: 13.5 µM
Cc1ccc(-c2nc(N/N=C/c3cccc([N+](=O)[O-])c3)c3ccccc3n2)cc1,,active: 0.536 µM
CCOC(=O)Cc1csc(NC(=S)NC(=O)c2ccccc2)n1,,"inconclusive: 26.9 µM [inhibitor, single point]"
CC(C)n1c(SCC(=O)Nc2ccc(N3CCOCC3)cc2)nnc1-c1ccco1,,"inconclusive: 21.3 µM [inhibitor, single point]"
CCc1ccc(C(=O)CC2(O)C(=O)N(CN3CCOCC3)c3ccccc32)cc1 (stereo not given),,"inconclusive: 9.53 µM [inhibitor, partial curve, poor fit]"
Cc1cc(C)cc(OCCn2nnc3ccccc32)c1,,"inconclusive: 15.1 µM [inhibitor, partial curve]"
CC1=NOC(=O)/C1=C/c1ccc(N(C)C)cc1,,active: 7.57 µM
Cc1cccc(N2C(S)=C(C#N)C(=O)NC23CCCCC3)c1,,"inconclusive: 21.3 µM [inhibitor, partial curve]"
O=c1[nH]c(=S)[nH]c2[nH]c(=S)[nH]c12,,"inconclusive: 13.5 µM [inhibitor, partial curve] and inconclusive: 37.9 µM [inhibitor, single point]"
CC(C)C(=O)Nc1ccc(C(=O)NNC(=S)NC(=O)c2ccco2)cc1,,"inconclusive: 26.9 µM [inhibitor, partial curve, poor fit]"
CCC(=O)N1CCc2cc(S(=O)(=O)NC(C(=O)NCc3ccc(OC)cc3)C(C)C)ccc21 (stereo not given),inactive: -4.77%,
CC1CCC2(CC1)NC(=O)N(CC(=O)Nc1ccc3c(c1)OCCCO3)C2=O (stereo not given),inactive: 1.02%,
Cc1ccc(COc2ccccc2C(=S)N2CCCC2)cc1,,"inconclusive: 37.9 µM [inhibitor, single point]"
COc1ccc(OC)c(CCNC(=O)CCCc2nnc3n(C)c(=O)c4sccc4n23)c1,,inactive
COC(=O)c1ccc(NC(=O)c2nn(C)c3c2CS(=O)(=O)c2ccccc2-3)cc1,,"inconclusive: 13.5 µM [inhibitor, partial curve, poor fit]"
O=c1c(Cl)c(N/N=C/c2ccc(Cl)cc2)cnn1-c1ccccc1,inactive: -4.3%,
CN(C(=O)COc1ccccc1C(=O)NCCOc1ccccc1)c1ccccc1,,"inconclusive: 37.9 µM [inhibitor, single point]"
CN(C)CCNC(=O)c1c(CSc2ccccc2)noc1C(=O)NCc1ccccc1,inactive: 1.03%,
CCN(CC)c1ccc(/C=N/NC(=O)CNC(=O)c2cccs2)cc1,,active: 23.9 µM
CN(C)S(=O)(=O)c1cccc(NC(=O)CSc2ncnc3ccccc23)c1,,"inconclusive: 37.9 µM [inhibitor, partial curve, poor fit]"
Cc1cc(Br)ccc1SCC(=O)OCC(=O)c1c(N)n(C)c(=O)n(C)c1=O,inactive: -11.1%,
COc1cccc(NC(=S)Nc2cc(C)cc(C)n2)c1,,active: 2.13 µM
CC(=O)N1CCN(C(=O)c2cc3c(s2)CCC(C)C3)CC1 (stereo not given),,"inconclusive: 37.9 µM [inhibitor, partial curve, poor fit]"
